# Test results taken from the supplement of paper PMC8728848.
# Some of the results follow.
# B1: CFEM-PPm (Pichia pastoris), F2QPV1 (protein)
# chain: AVATPPACLLACAAEVVKESSDCDALNNIQCICENEGSAIHACLESTCPDGLSSTALQSFEDVCE
# Tests used:
# Assay in all cases: glycan array binding signal (z-score within array); higher = stronger binding
# Conditions in all cases: glycan notation: IUPAC condensed, linker removed
# [1] = molecular target: Neu5Ac(a2-6)GlcNAc(b1-4)GlcNAc
# Summary of the method: (§1)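 From the Consortium for Functional Glycomics database, 3228 arrays were curated, keeping only those whose protein sequence was available. Binding is given as a within-array Z-score averaged across arrays sharing a protein sequence and across linkers. Negative Z-scores can be read as non-binding.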
# [2] = molecular target: Neu5Ac(a2-6)GlcNAc(b1-4)GlcNAc(b1-4)GlcNAc
# Summary of the method: as §1
# [3] = molecular target: Neu5Ac(a2-8)Neu5Ac
# Summary of the method: as §1
# [4] = molecular target: Neu5Ac(a2-8)Neu5Ac(a2-3)Gal(b1-3)GalNAc(b1-4)[Neu5Ac(a2-3)]Gal(b1-4)Glc
# Summary of the method: as §1
# [5] = molecular target: Neu5Ac(a2-8)Neu5Ac(a2-3)Gal(b1-3)GalNAc(b1-4)[Neu5Ac(a2-8)Neu5Ac(a2-3)]Gal(b1-4)Glc
# Summary of the method: as §1
# [6] = molecular target: Neu5Ac(a2-8)Neu5Ac(a2-3)Gal(b1-4)Glc
# Summary of the method: as §1
# [7] = molecular target: Neu5Ac(a2-8)Neu5Ac(a2-3)Gal(b1-4)GlcNAc
# Summary of the method: as §1
# [8] = molecular target: Neu5Ac(a2-8)Neu5Ac(a2-3)[Gal(b1-3)GalNAc(b1-4)]Gal(b1-4)Glc
# Summary of the method: as §1
# [9] = molecular target: Neu5Ac(a2-8)Neu5Ac(a2-3)[GalNAc(b1-4)]Gal(b1-4)Glc
# Summary of the method: as §1
# [10] = molecular target: Neu5Ac(a2-8)Neu5Ac(a2-8)Neu5Ac
# Summary of the method: as §1
# [11] = molecular target: Neu5Ac(a2-8)Neu5Ac(a2-8)Neu5Ac(a2-3)Gal(b1-4)Glc
# Summary of the method: as §1
# [12] = molecular target: Neu5Ac(a2-8)Neu5Ac(a2-8)Neu5Ac(a2-3)[Gal(b1-3)GalNAc(b1-4)]Gal(b1-4)Glc
# Summary of the method: as §1
# [13] = molecular target: Neu5Ac(a2-8)Neu5Ac(a2-8)Neu5Ac(a2-3)[GalNAc(b1-4)]Gal(b1-4)Glc
# Summary of the method: as §1
# [14] = molecular target: Neu5Ac(a2-8)Neu5Ac(a2-8)Neu5Ac(a2-8)Neu5Ac(a2-3)[GalNAc(b1-4)]Gal(b1-4)Glc
# Summary of the method: as §1
# [15] = molecular target: Neu5Ac(a2-8)Neu5Gc(a2-3)Gal(b1-4)GlcNAc
# Summary of the method: as §1
# [16] = molecular target: Neu5Ac(b2-6)Gal(b1-4)GlcNAc
# Summary of the method: as §1
# [17] = molecular target: Neu5Ac(b2-6)GalNAc
# Summary of the method: as §1
# [18] = molecular target: Neu5Ac9Ac(a2-3)Gal(b1-3)GlcNAc
# Summary of the method: as §1
# [19] = molecular target: Neu5Ac9Ac(a2-3)Gal(b1-4)GlcNAc
# Summary of the method: as §1
# [20] = molecular target: Neu5Ac9Ac(a2-6)Gal(b1-4)GlcNAc
# Summary of the method: as §1
# [21] = molecular target: Neu5Gc(a2-3)Gal(b1-3)GlcNAc
# Summary of the method: as §1
# [22] = molecular target: Neu5Gc(a2-3)Gal(b1-3)[Fuc(a1-4)]GlcNAc
# Summary of the method: as §1
# [23] = molecular target: Neu5Gc(a2-3)Gal(b1-4)Glc
# Summary of the method: as §1
# [24] = molecular target: Neu5Gc(a2-3)Gal(b1-4)GlcNAc
# Summary of the method: as §1
# [25] = molecular target: Neu5Gc(a2-3)Gal(b1-4)GlcNAc(b1-3)Gal(b1-4)GlcNAc(b1-2)Man(a1-3)[Neu5Gc(a2-3)Gal(b1-4)GlcNAc(b1-3)Gal(b1-4)GlcNAc(b1-2)Man(a1-6)]Man(b1-4)GlcNAc(b1-4)GlcNAc
# Summary of the method: as §1
# [26] = molecular target: Neu5Gc(a2-3)Gal(b1-4)[Fuc(a1-3)]GlcNAc
# Summary of the method: as §1
# [27] = molecular target: Neu5Gc(a2-6)Gal(b1-4)GlcNAc
# Summary of the method: as §1
# [28] = molecular target: Neu5Gc(a2-6)GalNAc
# Summary of the method: as §1
# [29] = molecular target: Neu5Gc(a2-8)Neu5Ac(a2-3)Gal(b1-4)GlcNAc
# Summary of the method: as §1
# [30] = molecular target: Neu5Gc(a2-8)Neu5Gc(a2-3)Gal(b1-4)GlcNAc
# Summary of the method: as §1
# [31] = molecular target: Neu5Gc(a2-8)Neu5Gc(a2-3)Gal(b1-4)GlcNAc(b1-3)Gal(b1-4)GlcNAc
# Summary of the method: as §1
# [32] = molecular target: Neu5Gc(a2-8)Neu5Gc(a2-6)Gal(b1-4)GlcNAc
# Summary of the method: as §1
# [33] = molecular target: Neu5Gc(b2-6)Gal(b1-4)GlcNAc
# Summary of the method: as §1
binder,measurement,setting,value
B1,glycan array binding signal (z-score),[1],-0.351
same,glycan array binding signal (z-score),[2],-0.354
same,glycan array binding signal (z-score),[3],-0.096
same,glycan array binding signal (z-score),[4],0.442
same,glycan array binding signal (z-score),[5],-0.11
same,glycan array binding signal (z-score),[6],-0.359
same,glycan array binding signal (z-score),[7],-0.338
same,glycan array binding signal (z-score),[8],1.2
same,glycan array binding signal (z-score),[9],-0.199
same,glycan array binding signal (z-score),[10],-0.261
same,glycan array binding signal (z-score),[11],-0.411
same,glycan array binding signal (z-score),[12],-0.121
same,glycan array binding signal (z-score),[13],-0.311
same,glycan array binding signal (z-score),[14],-0.319
same,glycan array binding signal (z-score),[15],-0.109
same,glycan array binding signal (z-score),[16],-0.005
same,glycan array binding signal (z-score),[17],-0.43
same,glycan array binding signal (z-score),[18],-0.058
same,glycan array binding signal (z-score),[19],-0.336
same,glycan array binding signal (z-score),[20],-0.377
same,glycan array binding signal (z-score),[21],-0.237
same,glycan array binding signal (z-score),[22],-0.246
same,glycan array binding signal (z-score),[23],-0.234
same,glycan array binding signal (z-score),[24],-0.235
same,glycan array binding signal (z-score),[25],-0.359
same,glycan array binding signal (z-score),[26],-0.063
same,glycan array binding signal (z-score),[27],-0.291
same,glycan array binding signal (z-score),[28],-0.287
same,glycan array binding signal (z-score),[29],-0.077
same,glycan array binding signal (z-score),[30],-0.188
same,glycan array binding signal (z-score),[31],-0.332
same,glycan array binding signal (z-score),[32],-0.186
same,glycan array binding signal (z-score),[33],-0.034
